Source: the supplement of paper PMC8948288
Shown are siRNA guide strands that differ only in the seed, positions 2 to 7.

Key:
GL261 = test: cell viability relative to siNT1 (ATP content); H4 human neuroglioma and GL261 mouse glioma; higher = less toxic; conditions: siRNA concentration 25 nM; 96 h; mouse
Description: (§1)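 Arrayed screen of all 4096 6mer seeds. Each seed sits at guide-strand positions 2-7 of a neutral 19mer siRNA backbone (siNT1-based, passenger strand 2'-O-methyl modified at positions 1-2 to block RISC loading, 3' DNA overhangs). The guide strand is built here as U + seed + ACAUGUAAACCA. Cells were reverse transfected in triplicate in 384-well plates (H4 at 10 nM, GL261 at 25 nM) with Lipofectamine RNAiMAX. Viability was read as ATP content (CellTiter-Glo) 96 h after transfection and normalised to siNT1 (%).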

H4 = test: as above; conditions: siRNA concentration 10 nM; 96 h; human
Description: as §1
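Note: cells reverse transfected with siRNA duplexes via lipid reagent, ATP read by luminescence, triplicate wells, values scaled to mean viability with non-targeting control siNT1.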

Sequence | cell viability (GL261) [%] | cell viability (H4) [%]
UAAGGAAACAUGUAAACCA | 49.7 | 117
UAAGGACACAUGUAAACCA | 22.2 | 40.2
UAAGGAGACAUGUAAACCA | 48.8 | 97.4
UAAGGAUACAUGUAAACCA | 46.9 | 84.4
UAAGGCAACAUGUAAACCA | 50.7 | 81.2
UAAGGCCACAUGUAAACCA | 14.4 | 47.7
UAAGGCGACAUGUAAACCA | 38.9 | 79.7
UAAGGCUACAUGUAAACCA | 31.1 | 80.5
UAAGGGAACAUGUAAACCA | 47.7 | 94.2
UAAGGGCACAUGUAAACCA | 15.7 | 38.5
UAAGGGGACAUGUAAACCA | 33.5 | 97.5
UAAGGGUACAUGUAAACCA | 30.3 | 93.1
UAAGGUAACAUGUAAACCA | 50.5 | 99.1
UAAGGUCACAUGUAAACCA | 30.4 | 98.6
UAAGGUGACAUGUAAACCA | 77.1 | 82.9
UAAGGUUACAUGUAAACCA | 56.5 | 96.5
UAAGUAAACAUGUAAACCA | 88.9 | 109
UAAGUACACAUGUAAACCA | 55.3 | 57.3
UAAGUAGACAUGUAAACCA | 71.3 | 89.1
UAAGUAUACAUGUAAACCA | 73.3 | 84.6
UAAGUCAACAUGUAAACCA | 49.8 | 81.5
UAAGUCCACAUGUAAACCA | 15.5 | 55.6
UAAGUCGACAUGUAAACCA | 37.5 | 112

Sequence | cell viability (GL261) [%] | cell viability (H4) [%]
UAAGUCUACAUGUAAACCA | 50.1 | 84.4
UAAGUGAACAUGUAAACCA | 52.4 | 109
UAAGUGCACAUGUAAACCA | 47.8 | 79.6
UAAGUGGACAUGUAAACCA | 24.7 | 88.9
UAAGUGUACAUGUAAACCA | 37.5 | 81.8
UAAGUUAACAUGUAAACCA | 65.1 | 90.9
UAAGUUCACAUGUAAACCA | 57.5 | 71.1
UAAGUUGACAUGUAAACCA | 53.7 | 111
UAAGUUUACAUGUAAACCA | 58.8 | 105
UAAUAAAACAUGUAAACCA | 67.5 | 103
UAAUAACACAUGUAAACCA | 67.8 | 113
UAAUAAGACAUGUAAACCA | 80.8 | 91.2
UAAUAAUACAUGUAAACCA | 53.1 | 88.9
UAAUACAACAUGUAAACCA | 73 | 94.2
UAAUACCACAUGUAAACCA | 41.5 | 61.7
UAAUACGACAUGUAAACCA | 73.5 | 111
UAAUACUACAUGUAAACCA | 49 | 73.9
UAAUAGAACAUGUAAACCA | 54.8 | 106
UAAUAGCACAUGUAAACCA | 26.7 | 60.7
UAAUAGGACAUGUAAACCA | 34.7 | 98.9
UAAUAGUACAUGUAAACCA | 8.55 | 82.3
UAAUAUAACAUGUAAACCA | 57.6 | 87.1
UAAUAUCACAUGUAAACCA | 32.4 | 102

Sequence | cell viability (GL261) [%] | cell viability (H4) [%]
UAAUAUGACAUGUAAACCA | 56.6 | 102
UAAUAUUACAUGUAAACCA | 60.6 | 108
UAAUCAAACAUGUAAACCA | 55.2 | 88.9
UAAUCACACAUGUAAACCA | 52.3 | 78.9
UAAUCAGACAUGUAAACCA | 60 | 93.1
UAAUCAUACAUGUAAACCA | 48.9 | 77.9
UAAUCCAACAUGUAAACCA | 64.3 | 92.7
UAAUCCCACAUGUAAACCA | 17.7 | 39.4
UAAUCCGACAUGUAAACCA | 58.9 | 79.5
UAAUCCUACAUGUAAACCA | 27.7 | 61.7
UAAUCGAACAUGUAAACCA | 80.2 | 86.5
UAAUCGCACAUGUAAACCA | 27.5 | 70.5
UAAUCGGACAUGUAAACCA | 64.2 | 82.3
UAAUCGUACAUGUAAACCA | 63.2 | 86.7
UAAUCUAACAUGUAAACCA | 66.9 | 113
UAAUCUCACAUGUAAACCA | 63 | 89.9
UAAUCUGACAUGUAAACCA | 80 | 80.4
UAAUCUUACAUGUAAACCA | 53.7 | 109
UAAUGAAACAUGUAAACCA | 63.3 | 97.6
UAAUGACACAUGUAAACCA | 12.3 | 64.3
UAAUGAGACAUGUAAACCA | 43.5 | 70.9
UAAUGAUACAUGUAAACCA | 35.2 | 66
UAAUGCAACAUGUAAACCA | 37.4 | 100

Sequence | cell viability (GL261) [%] | cell viability (H4) [%]
UAAUGCCACAUGUAAACCA | 10.4 | 66.8
UAAUGCGACAUGUAAACCA | 42.8 | 120
UAAUGCUACAUGUAAACCA | 13.9 | 80
UAAUGGAACAUGUAAACCA | 55.6 | 110
UAAUGGCACAUGUAAACCA | 15.1 | 50.2
UAAUGGGACAUGUAAACCA | 37.1 | 62.4
UAAUGGUACAUGUAAACCA | 37.4 | 62.7
UAAUGUAACAUGUAAACCA | 57.9 | 106
UAAUGUCACAUGUAAACCA | 25.4 | 109
UAAUGUGACAUGUAAACCA | 35.1 | 91.3
UAAUGUUACAUGUAAACCA | 27.7 | 74.6
UAAUUAAACAUGUAAACCA | 63.7 | 109
UAAUUACACAUGUAAACCA | 50.5 | 58.1
UAAUUAGACAUGUAAACCA | 53.3 | 92.5
UAAUUAUACAUGUAAACCA | 60.6 | 58.9
UAAUUCAACAUGUAAACCA | 53.2 | 91.8
UAAUUCCACAUGUAAACCA | 28 | 33.1
UAAUUCGACAUGUAAACCA | 59.9 | 103
UAAUUCUACAUGUAAACCA | 42.2 | 77.2
UAAUUGAACAUGUAAACCA | 69.3 | 96.4
UAAUUGCACAUGUAAACCA | 19.3 | 44.6
UAAUUGGACAUGUAAACCA | 30.3 | 58.1
UAAUUGUACAUGUAAACCA | 40 | 61.5

Sequence | cell viability (GL261) [%] | cell viability (H4) [%]
UAAUUUAACAUGUAAACCA | 72 | 101
UAAUUUCACAUGUAAACCA | 38.9 | 91.3
UAAUUUGACAUGUAAACCA | 62.1 | 97.1
UAAUUUUACAUGUAAACCA | 50.9 | 83.3
UACAAAAACAUGUAAACCA | 67.9 | 83.1
UACAAACACAUGUAAACCA | 50.8 | 83.8
UACAAAGACAUGUAAACCA | 57.4 | 83.5
UACAAAUACAUGUAAACCA | 65.9 | 84.6
UACAACAACAUGUAAACCA | 62.4 | 82.1
UACAACCACAUGUAAACCA | 26.5 | 26.2
UACAACGACAUGUAAACCA | 62.4 | 92.9
UACAACUACAUGUAAACCA | 38.9 | 62.9
UACAAGAACAUGUAAACCA | 61.5 | 88.3
UACAAGCACAUGUAAACCA | 39 | 69.4
UACAAGGACAUGUAAACCA | 52.6 | 56.5
UACAAGUACAUGUAAACCA | 50.7 | 74.6
UACAAUAACAUGUAAACCA | 60.8 | 106
UACAAUCACAUGUAAACCA | 52.2 | 42.9
UACAAUGACAUGUAAACCA | 72.5 | 81.7
UACAAUUACAUGUAAACCA | 51.3 | 85.4
UACACAAACAUGUAAACCA | 47.8 | 76.2
